# Experimental data reported in the supplement of paper PMC9174493.
# Some of the results follow. Single values of this set are uncertain. Values with irradiation are relative to irradiated vehicle.
# Test system: A549-Dual
# Test: NF-kB reporter (SEAP) activity, viability-corrected, relative to vehicle (fold change vs vehicle); higher = more activation of STING-IRF / NF-kB immune response reporter
# Settings: 10 µM; irradiation: none
# 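Further: viability correction based on the alamar blue assay, with concentrations leaving 10% survival or less dropped.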
row,Compound,NF-kB reporter
1,CCOC(=O)n1ccn(C)c1=S [Carbimazole],0.949
2,OCC(O)CN1CCN(c2ccccc2)CC1 (stereo not given) [Dropropizine],0.697
3,Cc1cc(=O)n(-c2ccccc2)n1C [Antipyrine],0.94
4,COc1ccc(CCNCC(O)COc2cccc(C)c2)cc1OC.Cl (stereo not given) [Bevantolol hydrochloride],0.747
5,CC(O)C1C(=O)N2C(C(=O)OCOC(=O)C(C)(C)C)=C(SC3CN(C4=NCCS4)C3)C(C)C12 (stereo not given) [Tebipenem Pivoxil],1.01
6,COC(=O)c1ccc(O)cc1 [Methyl 4-hydroxybenzoate],0.749
7,O=C(O)CCCCC1CCSS1 (stereo not given) [Thioctic acid],0.733
8,CCN(CC)CCOC(=O)C(c1ccccc1)C1CCCCC1.Cl (stereo not given) [Drofenine Hydrochloride],0.675
9,Cc1ccc(Sc2ccccc2N2CCNCC2)c(C)c1 [Vortioxetine],0.697
10,O=C1C(CCC(O)c2ccc(F)cc2)C(c2ccc(O)cc2)N1c1ccc(F)cc1 (stereo not given) [Ezetimibe],0.879
11,O=C(Cn1cnnn1)NC1C(=O)N2C(C(=O)[O-])=C(CSc3nncs3)CSC12.[Na+] (stereo not given) [Ceftezole sodium],0.916
12,Nc1ccc(O)cc1 [4-Aminophenol],0.874
13,Cl.O=C(O)/C=C/c1ccc(Cn2ccnc2)cc1 [Ozagrel HCl],0.872
14,CCCCC(CC)COC(=O)C=Cc1ccc(OC)cc1 (stereo not given) [Octinoxate],0.753
15,NC(CSCCCO)C(=O)O (stereo not given) [Fudosteine],0.678
16,CN1C2CCCC1CC(NC(=O)c1nn(C)c3ccccc13)C2 (stereo not given) [Granisetron],0.855
17,COc1cc2c(cc1OC)C1Cc3ccc(OC)c(OC)c3CN1CC2.Cl (stereo not given) [Tetrahydropalmatine hydrochloride],1.32
18,CC1(C)CC1C(=O)N/C(=C\CCCCSCC(N)C(=O)O)C(=O)O (stereo not given) [Cilastatin],0.878
19,C=CCc1ccc(O)c(OC)c1 [Eugenol],1.02
20,"CC(CN1CC(=O)NC(=O)C1)N1CC(=O)NC(=O)C1.Cl (stereo not given) [Dexrazoxane HCl (ICRF-187, ADR-529)]",1.75

row,Compound,NF-kB reporter
1,C/C(=C(\CCOC(=O)C(C)C)SS/C(CCOC(=O)C(C)C)=C(/C)N(C=O)Cc1cnc(C)nc1N)N(C=O)Cc1cnc(C)nc1N [Sulbutiamine],1.17
2,COC(=O)c1ccc2c(c1)NC(=O)/C2=C(\Nc1ccc(N(C)C(=O)CN2CCN(C)CC2)cc1)c1ccccc1 [Nintedanib (BIBF 1120)],1.86
3,Clc1ccc(Cn2c(CN3CCCC3)nc3ccccc32)cc1 [Clemizole],0.667
4,Cc1nnc(SCC2=C(C(=O)O)N3C(=O)C(NC(=O)Cn4cc(Cl)c(=O)c(Cl)c4)C3SC2)s1 (stereo not given) [Cefazedone],0.904
5,CC(C)(C)C(=O)OCOC(=O)C1N2C(=O)C(N=CN3CCCCCC3)C2SC1(C)C.Cl (stereo not given) [Pivmecillinam hydrochloride],0.974
6,O=C(O)c1cc(=O)[nH]c(=O)[nH]1 [Orotic acid (6-Carboxyuracil)],0.696
7,CN(C)CCOC(=O)C(c1ccccc1)C1(O)CCCC1.Cl (stereo not given) [Cyclopentolate Hydrochloride],0.752
8,OCC(O)C(O)C(OC1OC(CO)C(O)C(O)C1O)C(O)CO (stereo not given) [Maltitol],0.69
9,[OH][Al]([OH])[OH] [Aluminium hydroxide],0.893
10,O=C(NCc1c(F)cc(F)cc1F)c1cn2c(c(O)c1=O)C(=O)N1C3CCC(C3)OC1C2 (stereo not given) [Bictegravir],1.51
11,Cn1nnnc1SCC1=C(C(=O)[O-])N2C(=O)C(NC(=O)C(OC=O)c3ccccc3)C2SC1.[Na+] (stereo not given) [Cefamandole nafate],1.07
12,CCC(NC(C)C)C(O)c1ccc(O)c2[nH]c(=O)ccc12.Cl (stereo not given) [Procaterol HCl],0.86
13,CNCC(O)C(O)C(O)C(O)CO.CNCC(O)C(O)C(O)C(O)CO.O=C(O)CN1CCN2CCN(CC(=O)O)CC(=O)[O][Gd]([O]C(=O)C2)[O]C(=O)C1 [Gadopentetate Dimeglumine],0.72
14,O=C(C1CCCCC1)N1CC(=O)N2CCc3ccccc3C2C1 (stereo not given) [Praziquantel],1.14
15,CC(=O)OCC(COC(C)=O)OC(C)=O [Triacetin],1.1
16,C#CC1(OC(C)=O)CCC2C3CCC4=CC(OC(C)=O)CCC4C3CCC21C (stereo not given) [Ethynodiol diacetate],2.05
17,O=C1CC(c2ccc(O)c(O)c2)Oc2cc(O)cc(O)c21 (stereo not given) [Eriodictyol],2.75
18,OCC(CO)NC1CC(O)(CO)C(O)C(O)C1O (stereo not given) [Voglibose],0.746
19,Nc1ncnc2c1ncn2C1OC(COP(=O)(O)OP(=O)([O-])OP(=O)([O-])O)C(O)C1O.[Na+].[Na+] (stereo not given) [Adenosine disodium triphosphate],0.62
20,CC(O)C1C(=O)N2C(C(=O)O)=C(SCCNC=N)CC12.O (stereo not given) [Imipenem],0.792
